Reference: the RNAGym collection of RNA variant scans (doi:10.1093/nar/gkz1192)
Read counts are not given, so values of variants with three or more changes are uncertain.

B1: CPEB3 Ribozyme (parent)
chain: UAACAGGGGGCCACAGCAGAAGCGUUCACGUCGCAGCCCCUGUCAGAUUCUGGUGAAUCUGCGAAUUCUGCUGUAUAUCUC

Variants of: B1
Assay: self-cleavage, relative activity (ratio to wild type); higher = more cleavage; in vitro, sequencing
Summary of the method: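 For each CPEB3 ribozyme variant, relative activity is its cleaved/total read fraction divided by the unmutated ribozyme's. Barcoded error-prone PCR libraries were transcribed by T7 RNA polymerase (5 hours, 37°C) and held in DNase I for 15 min before an EDTA stop, with cleavage occurring throughout. Template-switching reverse transcription and Illumina sequencing were used to read the RNAs. A 5-read minimum applied, and results are the mean of three batches.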
For UAACAGGGGGCCACGGCAGAUGCGUUUACGUCGCAGCCCCUGUCAGAUUCUGGUGUAUCUGCGAAUUCCGCUGUAUAUCUC [A15G A21U C27U A56U U69C], the self-cleavage was 0.05.
With UAACAGGGGGCCACGGCAGAUGCGUUCACGUCGUAGCCCCUGUCAGAUUCUGGUGAAUCUGCGAACUCUGCUGUAUAUCUC [A15G A21U C34U U66C] the self-cleavage was 0.07.
For UAACAGGGGGCCACGGCAGAUACGUUCACGCCGCAGCCCCUGCCAGAUUCUGGUGAAUCUGCGAACUCUGCUGUGUAUCUC [A15G A21U G22A U31C U43C U66C A75G], the self-cleavage was 0.07.
In the case of UAACAGGGGGCCACGGCAGAUGCAUUCACGUCGCAGCCCCAGUCAGAUUCUGGUGAAUCUGCGAAUUCUGCUGUAUAUCUC [A15G A21U G24A U41A], the self-cleavage is reported as 0.33.
Work on UAACAGGGGGCCACGGCAGAUGCGUUCACGUCACAGCCCCUGUCAGAUUUUGGUGAAUCUGCGAAUUCUGCUGUAUAUCUC [A15G A21U G33A C50U] yielded a self-cleavage of 0.14.
With UAACAGGGGGCCACGGCAGAUGCGUUCACGUCACAGCCCCUGUCAGAUUCUGGUGAAUCUGCGAAUUCUGCAGUAUAUCUC [A15G A21U G33A U72A] the self-cleavage was 0.05.
In the case of UAACAGGGGGCCACGGCAGAUGCGUUCACGUCUCAGCCUCUGUCAGAUUCUGGUGAGUCUGCGAAUUCUGCUGUAUAUCUC [A15G A21U G33U C39U A57G], the self-cleavage is reported as 0.47.
UAACAGGGGGCCACGGCAGAUGCGUUCACGCCGCAGCCCCUGUCAGAUUCUGGUGAAUCUGCGAAUUCUGCUGUAUAUCUC [A15G A21U U31C] showed a self-cleavage of 0.24.
In the case of UAACAGGGGGCCACGGCAGAUGCGUUCACGUCGCAGCCCCAGUCAGAUUCUGGUGAAUCUGCGAAUUCUGCUGUAUAUCUC [A15G A21U U41A], the self-cleavage is reported as 0.1.
For UAACAGGGGGCCACGGCAGAUGCGUUCACGUCGCAGCCCCUGACAGAUUCUGGUGAAUCUGCGAAUUCUGCUGUAUAUCUC [A15G A21U U43A], the self-cleavage was 0.42.
UAACAGGGGGCCACGGCAGAUGCGUUCACGUCGCAGCCCCUGCCAGAUUCUGGUGAAUCUGUGAAUUCUGCUGUAUAUCUC [A15G A21U U43C C62U] gave a self-cleavage of 0.07.
Variant UAACAGGGGGCCACGGCAGAUGCGUUCACGUCGCAGCCCCUGUCAGAAUCUGGUGAAUCUGCGAAUUCUGCUGUAUCUCUC [A15G A21U U48A A77C] has a self-cleavage of 0.07.
Work on UAACAGGGGGCCACGGCAGAAGCGUUCCCGUCGCAGCCCCUGUCAGAUUCUGGUGAGUCUGCGUAUUCUGCUGUAUAUCUC [A15G A28C A57G A64U] yielded a self-cleavage of 0.16.
UAACAGGGGGCCACGGCAGAAGCGUUCCCGUCGCAGCCCCUGUCAGAUUCUGGUGAAUCUGCGAAUUCUGCUGUGUAUCUC [A15G A28C A75G] gave a self-cleavage of 0.27.
With UAACAGGGGGCCACGGCAGAAGCGUUCCCGUCGCAGCCCCCGUCAGAUUCUGGUGAAUCUGCGAAUUCUGCUCUAUAUCUC [A15G A28C U41C G73C] the self-cleavage was 0.44.
UAACAGGGGGCCACGGCAGAAGCGUUCCCGUCGCAGCCCCUGUCAGAUACUGGUGAAUCUGCGAAUUCUGCUGUAUAUCUC [A15G A28C U49A] showed a self-cleavage of 0.19.
UAACAGGGGGCCACGGCAGAAGCGUUCCCGUCGCAGCCCCUGUCAGAUCCUGGCGAAUCUGCGAAUUCUGCUGUAUAUCUC [A15G A28C U49C U54C] showed a self-cleavage of 0.17.
Work on UAACAGGGGGCCACGGCAGAAGCGUUCCCGUCGCAGCCCCUGUCAGAUUCUGGUGAAUCAGCGAUUUCUGCUGUAUAUCCC [A15G A28C U60A A65U U80C] yielded a self-cleavage of 0.12.
UAACAGGGGGCCACGGCAGAAGCGUUCGCGUCGCUGCCCCUGUCAGAUUCUGGUGAAUCCGCGAAUUCUGCAGUAUAUCUC [A15G A28G A35U U60C U72A] gave a self-cleavage of 0.08.
With UAACAGGGGGCCACGGCAGAAGCGUUCGCGUCGCAGCCCCUGUCGGAUCCUGGUGAAUAUGCGAAUUCUGCUGUAUAUCUC [A15G A28G A45G U49C C59A] the self-cleavage was 0.27.
Variant UAACAGGGGGCCACGGCAGAAGCGUUCGCGUCGCAGCCCCUGUCGGAUUCUGGCGAAUCUACGAAUUCUGCUGUAUAUCUC [A15G A28G A45G U54C G61A] has a self-cleavage of 0.24.
In the case of UAACAGGGGGCCACGGCAGAAGCGUUCGCGUCGCAGCCCCUGUCUGAUUCUGCUGAAUCUGCAAAUUCUGCUGUAUAUCUC [A15G A28G A45U G53C G63A], the self-cleavage is reported as 0.13.
UAACAGGGGGCCACGGCAGAAGCGUUCGCGUCGCAGCCCCUGUCAGGUACUGGUGAAUCUGCGAAUUCUGCUGUGUAUCUC [A15G A28G A47G U49A A75G] gave a self-cleavage of 0.16.
Variant UAACAGGGGGCCACGGCAGAAGCGUUCGCGUCGCAGCCCCUGUCAGAUUCUGGUGGAUCUGCGAACUCUGCUGCAUAUCUC [A15G A28G A56G U66C U74C] has a self-cleavage of 0.07.
UAACAGGGGGCCACGGCAGAAGCGUUCGCGUCGCAGCCCCUGUCAGAUUCUGGUGAGUCUGCGAAUUCUGCUGUAUAUCUC [A15G A28G A57G] gave a self-cleavage of 0.44.
Work on UAACAGGGGGCCACGGCAGAAGCGUUCGCGUCGCAGCCCCUGUCAGAUUCUGGUGAAUCUGCGCACUCUGCUGUAUAUCCC [A15G A28G A64C U66C U80C] yielded a self-cleavage of 0.07.
UAACAGGGGGCCACGGCAGAAGCGUUCGCGUCGCAGCCCCUGUCAGAUUCUGGUGAAUCUGCGAAUUCUGCUGUGUAUCUC [A15G A28G A75G] showed a self-cleavage of 0.33.
For UAACAGGGGGCCACGGCAGAAGCGUUCGAGUCGCAGCCCCUGUCAGAUUCUGGUGAAUCUGCGAAUUCCGCUGUAUAUCUC [A15G A28G C29A U69C], the self-cleavage was 0.19.
UAACAGGGGGCCACGGCAGAAGCGUUCGUGUCGCCGCCCCUGUCAGAUUCUGGUGAAUCUGAGAAUUCUGCUGUAUGUCUC [A15G A28G C29U A35C C62A A77G] showed a self-cleavage of 0.04.
For UAACAGGGGGCCACGGCAGAAGCGUUCGCGUUGCAGCCCCUGUCUGAUCCUGGUGUAUCUGCGAAUUCUGCUGUAUACCUC [A15G A28G C32U A45U U49C A56U U78C], the self-cleavage was 0.05.
Variant UAACAGGGGGCCACGGCAGAAGCGUUCGCGUCGUUGCCCCUGUCAGAUUCUGGUGAAUCUGCGAAUUCUGUAGUAUAUCUC [A15G A28G C34U A35U C71U U72A] has a self-cleavage of 0.06.
With UAACAGGGGGCCACGGCAGAAGCGUUCGCGUCGCAGCCCCUGUAAGAUUCUGGUGAAUCUGCGAAUUCUGCCGUAUAUCUC [A15G A28G C44A U72C] the self-cleavage was 0.45.
With UAACAGGGGGCCACGGCAGAAGCGUUCGCGUCGCAGCCCCUGUUAGAUUCUGGUGAAUCUGCGAAUUCUGCCGUAUAUCUC [A15G A28G C44U U72C] the self-cleavage was 0.31.
Variant UAACAGGGGGCCACGGCAGAAGCGUUCGCGUCACAGCCCCUGCCAGAUUCUGGUGAAUCUGCGAACUCUGCUGUAUAUCUC [A15G A28G G33A U43C U66C] has a self-cleavage of 0.16.
